Data published in patent US20190241662A1 (ADAGENE, published 2019).

Assays:
Assay in all cases: yeast-display flow cytometry, Normalized FACS Bound
human CD86 = target: T1, human CD86 (human, UniProt P42081 24-247, limits assumed)
T1 construct: constructs not described; also called recombinant human CD86 fused with human Fc; CD86-Fc-Bio
T1 sequence (looked up): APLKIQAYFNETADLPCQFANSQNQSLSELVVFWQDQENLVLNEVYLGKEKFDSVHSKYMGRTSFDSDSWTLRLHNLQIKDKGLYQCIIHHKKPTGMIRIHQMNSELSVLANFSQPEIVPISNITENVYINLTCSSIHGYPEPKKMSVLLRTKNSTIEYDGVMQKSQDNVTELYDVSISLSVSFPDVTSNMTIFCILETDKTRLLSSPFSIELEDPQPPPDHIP

mouse CD86 = target: T2, mouse CD86 (mouse, UniProt P42082 24-244, limits assumed)
T2 sequence (looked up): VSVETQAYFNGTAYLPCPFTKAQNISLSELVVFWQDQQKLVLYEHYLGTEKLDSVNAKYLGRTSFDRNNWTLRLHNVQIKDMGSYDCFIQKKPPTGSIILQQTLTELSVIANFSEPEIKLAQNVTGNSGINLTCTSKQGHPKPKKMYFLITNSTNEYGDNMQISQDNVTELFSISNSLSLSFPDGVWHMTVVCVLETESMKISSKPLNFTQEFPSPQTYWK

human CD80 = target: T3, human CD80 (human, UniProt P33681 35-242, limits assumed)
T3 construct: constructs not described; also called biotinylated CD80; CD80-Fc-Bio
T3 sequence (looked up): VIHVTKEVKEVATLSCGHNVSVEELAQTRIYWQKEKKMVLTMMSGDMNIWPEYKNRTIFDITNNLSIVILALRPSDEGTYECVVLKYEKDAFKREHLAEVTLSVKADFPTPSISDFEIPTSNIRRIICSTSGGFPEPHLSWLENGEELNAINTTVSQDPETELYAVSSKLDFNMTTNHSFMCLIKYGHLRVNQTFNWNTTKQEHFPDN

Measured: binding result

B1: human CTLA4 displayed on yeast (wild-type) (receptor)
chain: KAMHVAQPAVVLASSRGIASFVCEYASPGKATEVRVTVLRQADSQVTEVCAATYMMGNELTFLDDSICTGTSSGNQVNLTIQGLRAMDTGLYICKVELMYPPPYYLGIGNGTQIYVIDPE
notes: also called human WT
binds: all assays above

B2: mouse CTLA4 displayed on yeast (receptor)
chain: not shown
binds: all assays above

B3: human CTLA4 mutant YL105AA displayed on yeast (receptor)
chain: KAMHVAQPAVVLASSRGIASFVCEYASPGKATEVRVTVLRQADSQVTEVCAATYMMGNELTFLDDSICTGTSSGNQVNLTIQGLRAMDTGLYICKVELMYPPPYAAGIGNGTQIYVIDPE
binds: all assays above

B4: human CTLA4 mutant I108A displayed on yeast (receptor)
chain: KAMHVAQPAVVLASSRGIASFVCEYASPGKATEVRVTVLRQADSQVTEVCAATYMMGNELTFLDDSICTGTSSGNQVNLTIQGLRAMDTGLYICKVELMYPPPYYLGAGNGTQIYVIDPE
binds: all assays above

B5: human CTLA4 mutant I108E displayed on yeast (receptor)
chain: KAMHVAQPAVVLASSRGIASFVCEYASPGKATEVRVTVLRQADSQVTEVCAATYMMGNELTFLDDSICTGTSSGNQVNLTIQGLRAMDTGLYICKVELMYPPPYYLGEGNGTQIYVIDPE
binds: all assays above

B6: human CTLA4 mutant I108K displayed on yeast (receptor)
chain: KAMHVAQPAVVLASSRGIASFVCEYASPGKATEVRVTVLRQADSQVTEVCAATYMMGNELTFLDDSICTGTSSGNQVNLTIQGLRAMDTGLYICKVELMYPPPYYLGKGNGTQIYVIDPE
binds: all assays above

B7: human CTLA4 mutant I108R displayed on yeast (receptor)
chain: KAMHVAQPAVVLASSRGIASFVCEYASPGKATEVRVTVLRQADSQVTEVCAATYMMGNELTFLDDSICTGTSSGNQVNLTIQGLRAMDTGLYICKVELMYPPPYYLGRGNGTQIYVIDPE
binds: all assays above

B8: human CTLA4 mutant I108S displayed on yeast (receptor)
chain: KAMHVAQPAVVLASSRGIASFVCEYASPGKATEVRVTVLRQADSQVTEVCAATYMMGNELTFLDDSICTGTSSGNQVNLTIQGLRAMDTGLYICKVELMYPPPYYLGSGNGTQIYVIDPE
binds: all assays above
